In the supplement of paper PMC4996465:
Viability of KB3-1 and Nalm-6 cells after 48 h of drug alone (CellTiter-Glo), 11 doses over about 4.5 log units. % of DMSO wells, lower = more cell loss; AC50 from the fitted curve, lower = more potent. No active / inactive call. Nalm-6 was screened in two runs. AC50 is listed only for well-fitted inhibitory curves. KB3-1 is a HeLa-derived carcinoma line, Nalm-6 a B-cell precursor leukaemia line.

Assays:
[1] = tested on: Nalm-6; assay: viability (% of DMSO control); higher = more viable cells
Procedure: (§1)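 Eleven-dose screen of the NCATS MIPE 3 library on cells without co-treatment; CellTiter-Glo after 48 h, as % of DMSO wells.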

[2] = tested on: Nalm-6; assay: log AC50 of viability decrease (48 h) (log10 M); higher = less potent
Procedure: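 Eleven-dose screen of the NCATS MIPE 3 library on cells without co-treatment; CellTiter-Glo after 48 h. AC50 from the curve fit; only inhibitory curves of the better fit classes are listed.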

[3] = tested on: KB3-1; assay: viability (% of DMSO control); higher = more viable cells
Procedure: as §1

CC(=O)O.Cc1c(-c2ccc(O)cc2)n(Cc2ccc(OCCN3CCCCCC3)cc2)c2ccc(O)cc12 [Bazedoxifene]
Conditions | log AC50 of viability decrease | viability [%]
[1], run: 1, 0.00078 µM | – | 101
[1], run: 1, 0.00234 µM | – | 107
[1], run: 1, 0.00702 µM | – | 107
[1], run: 1, 0.0211 µM | – | 108
[1], run: 1, 0.0632 µM | – | 102
[1], run: 1, 0.19 µM | – | 101
[1], run: 1, 0.569 µM | – | 108
[1], run: 1, 1.71 µM | – | 88.4
[1], run: 1, 5.12 µM | – | 99.9
[1], run: 1, 15.4 µM | – | 70.3
[1], run: 1, 46.1 µM | – | 2.39
[1], run: 2, 0.00078 µM | – | 108
[1], run: 2, 0.00234 µM | – | 103
[1], run: 2, 0.00702 µM | – | 107
[1], run: 2, 0.0211 µM | – | 101
[1], run: 2, 0.0632 µM | – | 107
[1], run: 2, 0.19 µM | – | 103
[1], run: 2, 0.569 µM | – | 107
[1], run: 2, 1.71 µM | – | 98.8
[1], run: 2, 5.12 µM | – | 106
[1], run: 2, 15.4 µM | – | 76
[1], run: 2, 46.1 µM | – | 3.14
[2], run: 1 | -4.73 | –
[2], run: 2 | -4.58 | –

COc1cccc2c1C(=O)c1c(O)c3c(c(O)c1C2=O)C[C@@](O)(C(=O)CO)C[C@@H]3O[C@H]1C[C@H](N)[C@H](O)[C@H](C)O1 [Doxorubicin]
Conditions | log AC50 of viability decrease | viability [%]
[1], run: 1, 0.00078 µM | – | 101
[1], run: 1, 0.00234 µM | – | 100
[1], run: 1, 0.00702 µM | – | 67.4
[1], run: 1, 0.0211 µM | – | 46.4
[1], run: 1, 0.0632 µM | – | 9.31
[1], run: 1, 0.19 µM | – | 7.02
[1], run: 1, 0.569 µM | – | 5.01
[1], run: 1, 1.71 µM | – | 4.81
[1], run: 1, 5.12 µM | – | 5.79
[1], run: 1, 15.4 µM | – | 12.4
[1], run: 1, 46.1 µM | – | 33.2
[1], run: 2, 0.00078 µM | – | 108
[1], run: 2, 0.00234 µM | – | 103
[1], run: 2, 0.00702 µM | – | 84.2
[1], run: 2, 0.0211 µM | – | 36.9
[1], run: 2, 0.0632 µM | – | 8.3
[1], run: 2, 0.19 µM | – | 5.76
[1], run: 2, 0.569 µM | – | 5.46
[1], run: 2, 1.71 µM | – | 5.58
[1], run: 2, 5.12 µM | – | 9.75
[1], run: 2, 15.4 µM | – | 21.2
[1], run: 2, 46.1 µM | – | 43.6
[2], run: 1 | -7.93 | –
[2], run: 2 | -7.93 | –

Cc1cccc(-c2n[nH]cc2-c2ccc3ncccc3n2)n1 [SJN 2511]
Conditions | viability [%]
[1], run: 1, 0.00156 µM | 98.2
[1], run: 1, 0.00468 µM | 111
[1], run: 1, 0.014 µM | 107
[1], run: 1, 0.0421 µM | 129
[1], run: 1, 0.126 µM | 129
[1], run: 1, 0.379 µM | 119
[1], run: 1, 1.14 µM | 124
[1], run: 1, 3.41 µM | 124
[1], run: 1, 10.2 µM | 115
[1], run: 1, 30.7 µM | 121
[1], run: 1, 92.2 µM | 79.9
[1], run: 2, 0.00156 µM | 96
[1], run: 2, 0.00468 µM | 95.8
[1], run: 2, 0.014 µM | 95.2
[1], run: 2, 0.0421 µM | 107
[1], run: 2, 0.126 µM | 103
[1], run: 2, 0.379 µM | 101
[1], run: 2, 1.14 µM | 104
[1], run: 2, 3.41 µM | 99.4
[1], run: 2, 10.2 µM | 95.7
[1], run: 2, 30.7 µM | 96.3
[1], run: 2, 92.2 µM | 67.9
[3], 0.00156 µM | 102
[3], 0.00468 µM | 111
[3], 0.014 µM | 104
[3], 0.0421 µM | 109
[3], 0.126 µM | 107
[3], 0.379 µM | 109
[3], 1.14 µM | 114
[3], 3.41 µM | 117
[3], 10.2 µM | 116
[3], 30.7 µM | 119
[3], 92.2 µM | 100

CN[C@@H](C)C(=O)N[C@H]1CCCC[C@H]2CC[C@@H](C(=O)N[C@@H](c3ccccc3)c3cn(CCCCc4ccc(CCCCn5cc([C@@H](NC(=O)[C@@H]6CC[C@@H]7CCCC[C@H](NC(=O)[C@H](C)NC)C(=O)N76)c6ccccc6)nn5)cc4)nn3)N2C1=O [SM-164]
Conditions | viability [%]
[1], run: 1, 0.00078 µM | 94.6
[1], run: 1, 0.00234 µM | 96
[1], run: 1, 0.00702 µM | 96.6
[1], run: 1, 0.0211 µM | 92.6
[1], run: 1, 0.0632 µM | 51.2
[1], run: 1, 0.19 µM | 89.4
[1], run: 1, 0.569 µM | 91.4
[1], run: 1, 1.71 µM | 72.8
[1], run: 1, 5.12 µM | 83.3
[1], run: 1, 15.4 µM | 70.5
[1], run: 1, 46.1 µM | 64.6
[1], run: 2, 0.00078 µM | 94
[1], run: 2, 0.00234 µM | 98.1
[1], run: 2, 0.00702 µM | 92.6
[1], run: 2, 0.0211 µM | 88
[1], run: 2, 0.0632 µM | 87
[1], run: 2, 0.19 µM | 96.2
[1], run: 2, 0.569 µM | 80.5
[1], run: 2, 1.71 µM | 88.7
[1], run: 2, 5.12 µM | 89
[1], run: 2, 15.4 µM | 77.7
[1], run: 2, 46.1 µM | 70.9
[3], 0.00078 µM | 79.2
[3], 0.00234 µM | 72.4
[3], 0.00702 µM | 73.9
[3], 0.0211 µM | 70.2
[3], 0.0632 µM | 70.1
[3], 0.19 µM | 61.9
[3], 0.569 µM | 62.8
[3], 1.71 µM | 69.7
[3], 5.12 µM | 66.3
[3], 15.4 µM | 73.4
[3], 46.1 µM | 0.426

CC(C)=CCC/C(C)=C/CC/C(C)=C/CSc1ccccc1C(=O)O [Salirasib]
Conditions | viability [%]
[1], run: 1, 0.00078 µM | 94.4
[1], run: 1, 0.00234 µM | 106
[1], run: 1, 0.00702 µM | 101
[1], run: 1, 0.0211 µM | 111
[1], run: 1, 0.0632 µM | 104
[1], run: 1, 0.19 µM | 120
[1], run: 1, 0.569 µM | 103
[1], run: 1, 1.71 µM | 107
[1], run: 1, 5.12 µM | 107
[1], run: 1, 15.4 µM | 116
[1], run: 1, 46.1 µM | 104
[1], run: 2, 0.00078 µM | 102
[1], run: 2, 0.00234 µM | 105
[1], run: 2, 0.00702 µM | 109
[1], run: 2, 0.0211 µM | 105
[1], run: 2, 0.0632 µM | 102
[1], run: 2, 0.19 µM | 103
[1], run: 2, 0.569 µM | 106
[1], run: 2, 1.71 µM | 108
[1], run: 2, 5.12 µM | 110
[1], run: 2, 15.4 µM | 108
[1], run: 2, 46.1 µM | 60.9
[3], 0.00078 µM | 101
[3], 0.00234 µM | 96.8
[3], 0.00702 µM | 99.1
[3], 0.0211 µM | 100
[3], 0.0632 µM | 103
[3], 0.19 µM | 98
[3], 0.569 µM | 97.9
[3], 1.71 µM | 102
[3], 5.12 µM | 105
[3], 15.4 µM | 97.9
[3], 46.1 µM | 98.9

Cn1cnc2c(F)c(Nc3ccc(Br)cc3Cl)c(C(=O)NOCCO)cc21 [Selumetinib]
Conditions | viability [%]
[1], run: 1, 0.00078 µM | 114
[1], run: 1, 0.00234 µM | 121
[1], run: 1, 0.00702 µM | 113
[1], run: 1, 0.0211 µM | 105
[1], run: 1, 0.0632 µM | 112
[1], run: 1, 0.19 µM | 105
[1], run: 1, 0.569 µM | 107
[1], run: 1, 1.71 µM | 102
[1], run: 1, 5.12 µM | 104
[1], run: 1, 15.4 µM | 81.5
[1], run: 1, 46.1 µM | 92.1
[1], run: 2, 0.00078 µM | 112
[1], run: 2, 0.00234 µM | 108
[1], run: 2, 0.00702 µM | 109
[1], run: 2, 0.0211 µM | 97.7
[1], run: 2, 0.0632 µM | 106
[1], run: 2, 0.19 µM | 106
[1], run: 2, 0.569 µM | 106
[1], run: 2, 1.71 µM | 101
[1], run: 2, 5.12 µM | 83
[1], run: 2, 15.4 µM | 99.8
[1], run: 2, 46.1 µM | 88.9
[3], 0.00078 µM | 97.7
[3], 0.00234 µM | 101
[3], 0.00702 µM | 96.8
[3], 0.0211 µM | 96.1
[3], 0.0632 µM | 95.9
[3], 0.19 µM | 99.5
[3], 0.569 µM | 95.8
[3], 1.71 µM | 90.9
[3], 5.12 µM | 96
[3], 15.4 µM | 92.8
[3], 46.1 µM | 87.3
